Data taken from a collection of fitness landscapes (doi:10.1016/j.celrep.2020.107928).
The full ranking holds about 81,000 sequences; the median of “one-hybrid fitness for binding parS DNA” is about -0.17, and the highest 2% start at about 0.51. Some of the results follow.

B1: Caulobacter ParB omega fusion; a variant is named by its letters at X, in order, B8GW30 (parent)
chain: MESVVVGEPGMSEGRRGLGRGLSALLGEVDAAPAQAPGEQLGGSREAPIEILQRNPDQPRRTFREEDLEDLSNSIREKGVLQPILVRPSPDTAGEYQIVAGERAWRAAQRAGLKTVPIMVRELDDLAVLEIGIIENVQRADLNVLEEALSYKVLMEKFERTQENIAQTIGKSXSHVANXMRLLXLPDEVQSYLVSGELTAXHARAIAAAADPVALAKQIIEGGLSVRETEALARKAPNLSAGKSKGGRPPRVKDTDTQALESDLSSVLGLDVSIDHRGSTGTLTITYATLEQLDDLCNRLTRGI

Variants of: B1
Experiment: one-hybrid fitness for binding parS DNA (scaled: cognate 1, non-cognate 0); higher = stronger binding
Conditions: with parS DNA site
Procedure, shortened: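 Bacterial one-hybrid selection in E. coli USO rpoZ- hisB- pyrF- with a HIS3 reporter carrying the site 19 bp from the promoter, screening Caulobacter ParB libraries with four specificity codons randomised (NNS). Cells grew 48 hours at 37°C on M9-minus-histidine plus 0.1 mM IPTG and 5 mM 3-AT. Plasmids before and after selection were Illumina-sequenced, three replicate libraries pooled, and variants under 10 reads dropped. Fitness is the log change in variant-to-wild-type read ratio, rescaled to cognate 1, non-cognate 0.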

one-hybrid fitness for binding parS DNA, 0.23:
ARWW

one-hybrid fitness for binding parS DNA, 0.984:
RQTS

one-hybrid fitness for binding parS DNA, 0.398:
RRTY

one-hybrid fitness for binding parS DNA, 0.935:
RTMT

one-hybrid fitness for binding parS DNA, 0.545:
RYHA

one-hybrid fitness for binding parS DNA, ≤ 0.2:
NRCK
YASF
HRCN
NSQI
LVCS
CPTI
GNHE
PWYP
LVHV
CRYT
MQES
SQDF
SPVV
HMVC
HVNG
MNQR
TLGT
KFPG
QWHV
GLLH
CRLL
MYTR
FWRW
AISE
DLKL
IGDN
PLWV
HKLT
MNHS
SGKC
NYAR
MSHI
WCDT
VNGN
AKHR
ILPG
QCQH
NDTS
KCAG
NYIR
DELR
AAIV
YTSW
GHRV
QVQG
QRSC
IDTL
ILVR
SVMC
SRNG
HQEA
IQFM
IPIS
DQKR
WVHR
WTCR
PAEG
CSRT
PLHK
ATLC
PGFV
KMPL
CYAV
TCKH
FLPQ
DEFG
LPVN
AANR
ITAR
FRHV
DEYC
KLWS
LCSS
RNQQ
WKRS
VNIT
TLSH
FVEL
SKSW
PEMS
VRDV
CTRC
LDLT
TENY
SQPE
HKKI
AMDE
QNPF
QESQ
SNSI
KNQV
KKNM
SAPT
EDKI
SARY
ECHT
TLVI
PIGH
EAGC
APHP
GMVQ
SFLL
EYCS
GDHR
FDEV
IQLA
LLWR
PRSS
AQYW
LIKM
ISDV
DAHS
NFCG
KPSC
PFFL
PAGM
CAGM
PIKY
MIRS
RWKI
HHIC
YDST
REVP
TWAC
MPFI
DILM
KTFK
QLHE
YGGF
ENYR
WRTC
CAAS
AALW
PSCT
LTSF
MSDG
DQRD
RCSV
FING
TCDE
VKNW
RHWQ
NRNA
WNDT
PSWR
AGDI
NSDG
MEAS
AMAT
SPDP
MVAP
VHAR
KCNQ
QSNQ
KLKL
LGCG
RKKQ
WHST
AFDG
HVLP
GAWG
TGTA
YRYG
PELV
CLFG
DHDG
AQIC
DRVT
TPLY
LTNR
HAKS
FMRL
CVRN
STKY
QFNG
SVVP
LYVS
APWV
RAIP
CDKG
EGTL
MYAT
HADD
KADS
ARFR
LKQV

one-hybrid fitness for binding parS DNA, 0.872:
RYNS

one-hybrid fitness for binding parS DNA, 0.929:
RYSC

one-hybrid fitness for binding parS DNA, 0.92:
RHYC

one-hybrid fitness for binding parS DNA, 1.01:
RCIS
